# From paper PMC12136788
# This is one part of the list.
# T1: UNK ZnF1-3 (human, UniProt Q9C0B0 31-174)
# T1 sequence: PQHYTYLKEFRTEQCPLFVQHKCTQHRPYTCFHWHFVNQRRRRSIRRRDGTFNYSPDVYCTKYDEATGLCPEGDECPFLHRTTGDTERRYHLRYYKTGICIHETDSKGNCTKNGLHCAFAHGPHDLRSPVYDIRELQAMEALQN
# B1: chr9:91931296:91931297:+_ENSG00000123975_ENST00000314355|hu_hu|hu_hu_hu_mus_True|98_98 (ssRNA)
# RNA: GGGAGUUCUACAGUCCGACGAUCAGAUUAGAUGAUCCCAGAUAAACUUCAUUUUUGUUGUUCUUUUGGAAGAGGUCGUCUAAAGAGAAGAAUAUGCGGUUCUGGCUCAUGAAUCAUGUAAUGAACCCAUCCUAGACUCUGUUGCAACAGAGGAUUGAGCAUCA
# B2: chr3:58352644:58352645:+_ENSMUSG00000027810_ENSMUST00000029387|mus_mus|motif|central (ssRNA)
# RNA: GGGAGUUCUACAGUCCGACGAUCCUUAUGCAAAAGAGAGCCAGUAUAAUGCCAGAUCUUAUACCCAUUAUUAACACGUAACCGGGGAGCACAUGUGGCUGUUAAGAUAUGCUCACCAUCUGGGCACCAGGCAAAAUAUGUAGACAACAGAGGAUUGAGCAUCA
# B3: chrX:71549400:71549401:+_ENSMUSG00000019087_ENSMUST00000019231|mus_hu|mus_mus_mus_hu_False|18_98 (ssRNA)
# RNA: GGGAGUUCUACAGUCCGACGAUCGCAGUAGGAAGAGCAAACCUUUCCAGUCCAGUGCGCUGCAGGGUGGGAAAGCAACAACACGGACACCGUCCCACCCUCAACCCCCCCACUGGCAUGUCACACAACAAUCUGGGUCAAAGACAACAGAGGAUUGAGCAUCA
# B4: 52304824_52312335_384_CDS_ENSG00000164091_ENST00000296490|human|control|control (ssRNA)
# RNA: GGGAGUUCUACAGUCCGACGAUCUUUGCCCUCCUGGCAGUCAUAGAGCACGAUGGAGUCGUCGUCGCUACUCGAGAUGACCGUCUCGCCGUUGGGGCUGAAAUCGAAGCAGUUAAUCUUGUCCGAGUUUUCGCGGAACACCUUCAACAGAGGAUUGAGCAUCA
# B5: chr2:60072322:60072323:+_ENSMUSG00000026977_ENSMUST00000102748|mus_mus|motif|central (ssRNA)
# RNA: GGGAGUUCUACAGUCCGACGAUCAGAUCUUGUAUUCAAGGAAUCUUGACUAGAUCUUCGUGAGAAAAAAGUAGAUGACAUGCGGGAAGCUAUCCGUGACAGCAAUCUCCUAGUUGUACGCCUACCUUCAUUGUCAGAAGAUUCCAACAGAGGAUUGAGCAUCA
# B6: chr22:32879901:32879902:+_ENSG00000100225_ENST00000397426|hu_mus|hu_hu_hu_mus_False|1_1 (ssRNA)
# RNA: GGGAGUUCUACAGUCCGACGAUCCUCUUCCAUACUCAUGGCAUCCUGAAUUGACUCAGCUUCAACAUUUUGACUAGGCCCUUCCAUACUGUCAUCAGUCCAGGCAUCAAAUGGGGUGGCCUGUCCUUGGGAUGAAUCACUUGGCAACAGAGGAUUGAGCAUCA
# B7: chr1:27861377:27861378:-_ENSG00000126705_ENST00000374011|hu_mus|FALSE|FALSE (ssRNA)
# RNA: GGGAGUUCUACAGUCCGACGAUCGGGGCCGCAGGGGGUGCAAGGGGCAGGUGGGAGGCAGAGGGGCAGGUGCUCCUGCCAGAGGACGAUGUGGACGCUGGGAGGGGUCUUGGCAUUGCUCUUCUGAAAGCCAGGAACAAAACCCAACAGAGGAUUGAGCAUCA
# B8: chr3:179287964:179287965:+_ENSG00000136518_ENST00000429709|hu_hu|hu_hu_hu_mus_True|18_78 (ssRNA)
# RNA: GGGAGUUCUACAGUCCGACGAUCCUUGAGUGGUGAGAUGGCCUCCAUGUUCUCCCUCGGAACACGCAGGGCAUUGGUGUCUAUGUAGUAGGUGGGCCCGCCCUGCUUGCCUUUGUCGCCAUCUAUUUCCAUCAUUGUACUUCCCAACAGAGGAUUGAGCAUCA
# B9: chr5:107067165:107067166:-_ENSMUSG00000049606_ENSMUST00000112696|mus_mus|FALSE|FALSE (ssRNA)
# RNA: GGGAGUUCUACAGUCCGACGAUCAACUAAAGCAGAGGUAGGUACUUUUUUAAUGGAAUGGGUUGGAUUCUUAGCAUGUGCUACAUCUGAUAACAAAAACAGAACUUGGUGUUGACUUGCUUUUUGUGGUGUAGACAGCUGAUGCAACAGAGGAUUGAGCAUCA
# B10: chr15:73134924:73134925:-_ENSMUSG00000022607_ENSMUST00000110036|mus_mus|FALSE|FALSE (ssRNA)
# RNA: GGGAGUUCUACAGUCCGACGAUCGUCAAAUCUGUACACAGGAGAAAGAAUCUCAAAGAAUUUCAGGAUGCUUUCUUCUCUAUUAAGGUUGGCAAACUGCCUGAAUGUUUGCUGGAUCAGCUUUCUUAGUGUUUUGGCCUUGACCAACAGAGGAUUGAGCAUCA
# B11: chr6:108533379:108533380:-_ENSG00000112335_ENST00000426155|hu_mus|motif|central (ssRNA)
# RNA: GGGAGUUCUACAGUCCGACGAUCUGCUUCUUCUCACCAAACUCAGGCAUGUCUUAUUUUAGAUGGAGUAUAGCUUUUAUCGGUAAUUUCAUCCUGUAAAAACAUGUGAAGACAACGUUCAUUCUGGGCCAGAGGAUGACCAGCCAACAGAGGAUUGAGCAUCA
# B12: chr1:39494564:39494565:+_ENSG00000168653_ENST00000372967|hu_hu|hu_hu_hu_mus_True|8_108 (ssRNA)
# RNA: GGGAGUUCUACAGUCCGACGAUCAUGUGCACGUCUCAUCGUUUUGUACCGAAGCAAGCACUCUUCGAAGUCAUCGAACUCUAUCUUGCACUCCUUUUUCGCCCGGGUCCCACCGAUCCCGUGUGCACAUUCUAUCCACUCUUUCAACAGAGGAUUGAGCAUCA
# B13: chr10:114798999:114799000:-_ENSMUSG00000069520_ENSMUST00000092170|mus_mus|FALSE|FALSE (ssRNA)
# RNA: GGGAGUUCUACAGUCCGACGAUCUCAUCUUUAUAUACCUUUUGCACGUAGUGUCGUCACUAUCUGUCAUGGAAAAUAGAGCUACGAGCACAUCUUCCACCAACCGAACGACAAAAUAGAAUCGUAAAUCCAAAACGUCUAGUCCAACAGAGGAUUGAGCAUCA
# B14: chr16:32084594:32084595:-_ENSMUSG00000023791_ENSMUST00000096109|perfect_dup|motif|central (ssRNA)
# RNA: GGGAGUUCUACAGUCCGACGAUCAGAAAACACUUAGCUGUACAAAACUUACAGGGAAAAGUGGCCAUAUUUGAAAACAGCGGAAAGGAUCAAAGUAGAACACAGAAUCGUAAUGAGCAGCGUCACAGAACACACUAAAGAGGUCAACAGAGGAUUGAGCAUCA
# B15: 53077001_53077121_1355_3pUTR_ENSMUSG00000026960_ENSMUST00000028336|mouse|control|control (ssRNA)
# RNA: GGGAGUUCUACAGUCCGACGAUCCUUUAAUUCUUUUUGAAGAGACAAAAUACUAAAGGACAGGUCUACACCAGCUAAGAAAUAAAAUUUACAGCCAUAUAGGUAUAAAUGUAAUCAUUUAAAACACAAAUGCAGUAUUAUAAACAACAGAGGAUUGAGCAUCA
# B16: chr7:91631701:91631702:+_ENSG00000127914_ENST00000356239|hu_mus|FALSE|FALSE (ssRNA)
# RNA: GGGAGUUCUACAGUCCGACGAUCUUCAUUUAGAUAAAGGCAUUGUUGUUGAAGGUCCUCGGUCUCCUUCCUCAGCAUCGCUACUUCUUUUUGCCACCUCGAGUCUGCCGACUUGCUUGUGCUGGGAUCUACGGCAAUGGAUCUCAACAGAGGAUUGAGCAUCA
# B17: 94353784_94353904_1773_3pUTR_ENSG00000023909_ENST00000370238|human|control|control (ssRNA)
# RNA: GGGAGUUCUACAGUCCGACGAUCACUAUGGAUGGAUCAAUAAUUUAAAAGAAUCUGGAUGGAGGUGACAGUAGUUGCUUUUAUAAAACCCCCAAACAAUAAUUUCAAAGCUUCUAGUCUCCUUUCAGAUUUACUUUGGUUUGUCAACAGAGGAUUGAGCAUCA
# B18: chr17:55916980:55916981:-_ENSG00000181610_ENST00000313608|hu_mus|FALSE|FALSE (ssRNA)
# RNA: GGGAGUUCUACAGUCCGACGAUCCAAAGCUGGUGCUUUCAAACCACAGUACUGAGAUUCAUAACAUCCCGAAAACAGGGACUAAGAGAAGGCACACGUGCCUGAGAGAUGGAGGCCAUCAGAGUCCAUCAGCUUGGGCCAGCGCAACAGAGGAUUGAGCAUCA
# B19: 18865001_18865121_5024_CDS_ENSG00000157106_ENST00000446231|human|control|control (ssRNA)
# RNA: GGGAGUUCUACAGUCCGACGAUCACCUGUGAAGUUCUGUUGGUGCUGAGCUCUGUAAACCUGUUUCAGCUGUCCUGAAAUCUCUUUCCAUUCUGCCUGGAUCCAUUUAGCCAGUGUCAGAAUUGAUUUAGCAACUGCAUAUUCCAACAGAGGAUUGAGCAUCA
# B20: 76776367_76776973_7253_CDS_ENSG00000085224_ENST00000373344|human|control|control (ssRNA)
# RNA: GGGAGUUCUACAGUCCGACGAUCCUCUGAGAGAUUCAUGUUCUCCUUCCAUACAGCUGAAAUUAUAUCCUCAAGAGGUUGAAUCCUCACUGCUGUCACACUGUUUGUUGCUUCUACAACUUUUUCUCUUCCUUGAUUAAUGAGCAACAGAGGAUUGAGCAUCA
# B21: 11812662_11815180_1692_CDS_ENSMUSG00000031511_ENSMUST00000110909|mouse|control|control (ssRNA)
# RNA: GGGAGUUCUACAGUCCGACGAUCAAUCCGCUCGAUCAUGCUCCCUGAUAUCUCAAAUGCAUUCCUAUGGUUUUCACUGUCCUCAAGCUUUGUGAUUGUCAUUCCUGUUGUUGGCAGCUUCCCCUGAUAGAUGAAACCACUCAUCAACAGAGGAUUGAGCAUCA
# B22: 30809697_30809817_731_ncRNA_ENSMUSG00000026848_ENSMUST00000133544|mouse|control|control (ssRNA)
# RNA: GGGAGUUCUACAGUCCGACGAUCACACCAAAGCCAGCCUGGACUACACGAUGAGGCACUGUCUCAGAAAGUAUAAAUAAAGAGAGGCUAGGCAUUUAAUCCCAGCCUUUGGAGGGCAGAGGUAGGUAGAUCUCUGUGAGUUCCCAACAGAGGAUUGAGCAUCA
# Biological target: T1, UNK ZnF1-3
# Test: nsRBNS (natural sequence RNA bind-n-seq); RBNS binding buffer (assumed for nsRBNS): 25 mM Tris pH 7.5, 150 mM KCl, 3 mM MgCl2, 0.01% Triton X-100, 500 ug/ml BSA, 20 U/ml SUPERase-In, 4 C; UNK is unkempt and MSI1 is Musashi-1; names of the RNAs are library labels; protein concentration not given here; high values mean tight binding
row,Binder,binding signal [enrichment R]
1,B1,1.04
2,B2,1.13
3,B3,1.06
4,B4,0.529
5,B5,0.487
6,B6,1.02
7,B7,2.4
8,B8,0.342
9,B9,1.19
10,B10,1.04
11,B11,1.25
12,B12,0.498
13,B13,0.661
14,B14,1.46
15,B15,0.797
16,B16,0.575
17,B17,1.09
18,B18,1.08
19,B19,0.623
20,B20,0.527
21,B21,0.485
22,B22,1.46
